This assay addresses S蛋白, SARS-CoV-2原型毒株 (SARS-CoV-2 (prototype)). Description: cell-based or functional assay.

B1: 双特异性抗体蛋白DIA-19 (bispecific antibody)
chain: QITLKESGPTLVKPTQTLTLTCTFSGFSLSTSGVGVAWIRQPPGKALEWLALIYWDNDKRSSPSLNNRLTITKDTSKNQVVLTMTNMDPEDTATYYCAHFFSHYDSSNYYYGSWFDPWGQGTLVTVSSGGGGSGGGGS[letters of about 100 residues omitted]FTFGPGTKVDIKGGGGSGGGGSGGGGSGGGGSGGGGSEVQLVESGGGVVQPGGSLRLSCAVSGFTFDDYAMHWVRQAPGKGLDWVSLISGDGSYTYYADSVKGRFTISRDSSKNSLYLQMNSLRTEDTALYYCAKAQTPTLWWLQDAFDIWGQGTMVTVSSGGGGSGGGGSEIVLTQSPGTLSLSPGERATLSCRASQSFDSRYLGWYQQKSGQAPRLLIYGASSRATGIPDRFSGSGSGTDFTLTISRLEPEDFAVYYCQQFGDSPFTFGQGTKLEIKGGGGS[letters of human IgG1 Fc with changes omitted]
Regarding B1, the “假病毒中和效果 IC50” value was 0.849 ng/mL.
